# Measurements published in the supplement of paper PMC8728848.
# Some of the results follow.
# B1: GALT1 115 D492A (Arabidopsis thaliana), Q8L7F9 (protein)
# chain: DPMRGSHHHHHHGMASMTGGQQMGRDLYDDDDKSRLQKPYITAAASVVVTPNTTLPMEWLRITLPDFMKEARNTQEAISGDDIAVVSGLFVEQNVSKEEREPLLTWNRLESLVDNAQSLVNGVDAIKEAGIVWESLVSAVEAKKLVDVNENQTRKGKEELCPQFLSKMNATEADGSSLKLQIPCGLTQGSSITVIGIPDGLVGSFRIDLTGQPLPGEPDPPIIVHYNVRLLGDKSTEDPVIVQNSWTASQDWGAEERCPKFDPDMNKKVDDLDECNKMVGGEINRTSSTSLQSNTSRGVPVAREASKHEKYFPFKQGFLSVATLRVGTEGMQMTVDGKHITSFAFRDTLEPWLVSEIRITGDFRLISILASGLPTSEESEHVVDLEALKSPTLSPLRPLDLVIGVFSTANNFKRRMAVRRTWMQYDDVRSGRVAVRFFVGLHKSPLVNLELWNEARTYGDVQLMPFVDYYSLISWKTLAICIFGTEVDSAKFIMKTDDAAFVRVDEVLLSLSMTNNTRGLIYGLINSDSQPIRNPDSKWYISYEEWPEEKYPPWAHGPGYIVSRDIAESVGKLFKEGNLKMFKLEDVAMGIWIAELTKHGLEPHYENDGRIISDGCKDGYVVAHYQSPAEMTCLWRKYQETKRSLCCREW
# Key:
# Assay in all cases: glycan array binding signal (z-score within array); higher = stronger binding
# Conditions in all cases: glycan notation: IUPAC condensed, linker removed
# [1] = target: Gal(b1-3)[Fuc(a1-4)]GlcNAc
# Summary of the method: (§1)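 Glycan array binding is given as a within-array Z-score, which can be read as non-binding when negative. The arrays, 3228 of them, came from the Consortium for Functional Glycomics database and were retained only where the protein sequence was available. Z-scores were averaged across arrays of the same protein sequence at different concentrations or buffers and across linkers.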
# [2] = target: Gal(b1-3)[Fuc(a1-4)]GlcNAc(b1-2)Man(a1-3)[Gal(b1-3)[Fuc(a1-4)]GlcNAc(b1-2)Man(a1-6)]Man(b1-4)GlcNAc(b1-4)GlcNAc
# Summary of the method: as §1
# [3] = target: Gal(b1-3)[Fuc(a1-4)]GlcNAc(b1-2)Man(a1-3)[Gal(b1-3)[Fuc(a1-4)]GlcNAc(b1-2)Man(a1-6)]Man(b1-4)GlcNAc(b1-4)[Fuc(a1-6)]GlcNAc
# Summary of the method: as §1
# [4] = target: Gal(b1-3)[Fuc(a1-4)]GlcNAc(b1-3)Gal(b1-3)[Fuc(a1-4)]GlcNAc
# Summary of the method: as §1
# [5] = target: Gal(b1-3)[Fuc(a1-4)]GlcNAc(b1-3)Gal(b1-4)GlcNAc
# Summary of the method: as §1
# [6] = target: Gal(b1-3)[Fuc(a1-4)]GlcNAc(b1-3)Gal(b1-4)[Fuc(a1-3)]GlcNAc
# Summary of the method: as §1
# [7] = target: Gal(b1-3)[GlcNAc(b1-6)]GalNAc
# Summary of the method: as §1
# [8] = target: Gal(b1-3)[Neu5Ac(a2-6)]GalNAc
# Summary of the method: as §1
# [9] = target: Gal(b1-3)[Neu5Ac(a2-6)]GlcNAc(b1-6)Gal(b1-4)Glc
# Summary of the method: as §1
# [10] = target: Gal(b1-3)[Neu5Ac(b2-6)]GalNAc
# Summary of the method: as §1
# [11] = target: Gal(b1-4)GalNAc(a1-3)[Fuc(a1-2)]Gal(b1-4)GlcNAc
# Summary of the method: as §1
# [12] = target: Gal(b1-4)GalNAc(b1-3)[Fuc(a1-2)]Gal(b1-4)GlcNAc
# Summary of the method: as §1
# Gal(b1-4)Glc = target: Gal(b1-4)Glc
# Summary of the method: as §1
# Gal(b1-4)Glc6S = target: Gal(b1-4)Glc6S
# Summary of the method: as §1
# Gal(b1-4)GlcNAc = target: Gal(b1-4)GlcNAc
# Summary of the method: as §1
# [13] = target: Gal(b1-4)GlcNAc(a1-6)Gal(b1-4)GlcNAc
# Summary of the method: as §1
# [14] = target: Gal(b1-4)GlcNAc(b1-2)Man(a1-3)Man(b1-4)GlcNAc(b1-4)GlcNAc
# Summary of the method: as §1
# [15] = target: Gal(b1-4)GlcNAc(b1-2)Man(a1-3)[Gal(b1-4)GlcNAc(b1-2)Man(a1-6)]Man(b1-4)GlcNAc(b1-4)GlcNAc
# Summary of the method: as §1
# [16] = target: Gal(b1-4)GlcNAc(b1-2)Man(a1-3)[Gal(b1-4)GlcNAc(b1-2)Man(a1-6)]Man(b1-4)GlcNAc(b1-4)[Fuc(a1-6)]GlcNAc
# Summary of the method: as §1
# [17] = target: Gal(b1-4)GlcNAc(b1-2)Man(a1-3)[Man(a1-6)]Man(b1-4)GlcNAc(b1-4)GlcNAc
# Summary of the method: as §1
# [18] = target: Gal(b1-4)GlcNAc(b1-2)Man(a1-6)Man(b1-4)GlcNAc(b1-4)GlcNAc
# Summary of the method: as §1
# [19] = target: Gal(b1-4)GlcNAc(b1-2)Man(a1-6)[Man(a1-3)]Man(b1-4)GlcNAc(b1-4)GlcNAc
# Summary of the method: as §1
# [20] = target: Gal(b1-4)GlcNAc(b1-2)[Gal(b1-4)GlcNAc(b1-4)]Man(a1-3)[Gal(b1-4)GlcNAc(b1-2)Man(a1-6)]Man(b1-4)GlcNAc(b1-4)GlcNAc
# Summary of the method: as §1
# [21] = target: Gal(b1-4)GlcNAc(b1-3)Gal(b1-3)GlcNAc
# Summary of the method: as §1
# [22] = target: Gal(b1-4)GlcNAc(b1-3)Gal(b1-4)Glc
# Summary of the method: as §1
# [23] = target: Gal(b1-4)GlcNAc(b1-3)Gal(b1-4)GlcNAc
# Summary of the method: as §1
# [24] = target: Gal(b1-4)GlcNAc(b1-3)Gal(b1-4)GlcNAc(b1-3)Gal(b1-4)GlcNAc
# Summary of the method: as §1
# [25] = target: Gal(b1-4)GlcNAc(b1-3)Gal(b1-4)[Fuc(a1-3)]GlcNAc(b1-3)Gal(b1-4)[Fuc(a1-3)]GlcNAc
# Summary of the method: as §1
# [26] = target: Gal(b1-4)GlcNAc(b1-3)GalNAc
# Summary of the method: as §1
# [27] = target: Gal(b1-4)GlcNAc(b1-3)[Gal(b1-4)GlcNAc(b1-6)]Gal(b1-4)GlcNAc
# Summary of the method: as §1
binder,measurement,setting,value
B1,glycan array binding signal (z-score),[1],-0.405
same,glycan array binding signal (z-score),[2],0.286
same,glycan array binding signal (z-score),[3],-0.152
same,glycan array binding signal (z-score),[4],-0.081
same,glycan array binding signal (z-score),[5],-0.205
same,glycan array binding signal (z-score),[6],-0.353
same,glycan array binding signal (z-score),[7],-0.268
same,glycan array binding signal (z-score),[8],-0.128
same,glycan array binding signal (z-score),[9],-0.069
same,glycan array binding signal (z-score),[10],-0.062
same,glycan array binding signal (z-score),[11],-0.161
same,glycan array binding signal (z-score),[12],-0.47
same,glycan array binding signal (z-score),Gal(b1-4)Glc,-0.124
same,glycan array binding signal (z-score),Gal(b1-4)Glc6S,-0.427
same,glycan array binding signal (z-score),Gal(b1-4)GlcNAc,-0.364
same,glycan array binding signal (z-score),[13],-0.068
same,glycan array binding signal (z-score),[14],-0.019
same,glycan array binding signal (z-score),[15],-0.144
same,glycan array binding signal (z-score),[16],0.529
same,glycan array binding signal (z-score),[17],0.037
same,glycan array binding signal (z-score),[18],-0.277
same,glycan array binding signal (z-score),[19],-0.253
same,glycan array binding signal (z-score),[20],-0.255
same,glycan array binding signal (z-score),[21],-0.291
same,glycan array binding signal (z-score),[22],0.408
same,glycan array binding signal (z-score),[23],0.241
same,glycan array binding signal (z-score),[24],-0.243
same,glycan array binding signal (z-score),[25],-0.056
same,glycan array binding signal (z-score),[26],-0.374
same,glycan array binding signal (z-score),[27],-0.171
